Assay results: the supplement of paper PMC10126150
Sequences with one replicate were seen in a single cluster, so their values are uncertain.

The sequences below were run on ATP (assay: switch fluorescence ratio, 500 uM ATP over buffer (Cy3 cluster intensity, sum of 5 cycles each) (fold (ratio)); higher = stronger signal-on switching upon ATP binding; sequences stand for … in TCGTCGGCAGCGTCAGATGTGTATAAGAGACAGTTTTTTTTTTTTTTTTTTTTTTTTT…TC). Conditions: aptamer strand: ATP DNA aptamer (quencher-CACCTGGGGGAGTATTGCGGAGGAAGG + anchor), 100 nM annealed; ATP concentration: 500 uM; one replicate.
Method in brief: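 Cy3-labelled switching-strand clusters on a modified Illumina MiSeq flow-cell were annealed to 100 nM quencher-labelled ATP aptamer, imaged in selection buffer, then imaged after 15 min with 500 uM ATP at 22 °C. Five buffer/ATP cycles ran, with NaOH stripping and re-annealing between them. The fluorescence ratio is summed target-cycle over summed buffer-cycle Cy3 intensity per cluster, averaged per switch-domain sequence. Clusters outside 100-1000 RFU were excluded.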
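Further: ATP exposure 15 min at 22 °C before imaging.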

Row | Sequence | switch fluorescence ratio
1 | GAGCGAGAAA | 0.987
2 | GAGCGGCAAA | 1.04
3 | GAGCGGCTCA | 1.02
4 | GAGCGGGAGG | 1
5 | GAGCGGTAGG | 0.999
6 | GAGCGTATTA | 1.01
7 | GAGCTAGCGC | 1.08
8 | GAGCTGAAAG | 1
9 | GAGCTGACCT | 1.18
10 | GAGCTGCCCC | 1.04
11 | GAGCTGGTAG | 0.981
12 | GAGCTGTGAG | 1.03
13 | GAGGAAAGCT | 1.23
14 | GAGGAAATGA | 0.985
15 | GAGGACATGG | 1.18
16 | GAGGACTGG | 0.973
17 | GAGGCAGCGG | 1.07
18 | GAGGCATGTA | 1.06
19 | GAGGCCAGGT | 1.58
20 | GAGGCCTGTA | 0.978
21 | GAGGCGAAGG | 0.994
22 | GAGGCGGCTT | 1.06
23 | GAGGCTAGGA | 1.01
24 | GAGGGAGG | 0.99
25 | GAGGGATCTA | 0.98
26 | GAGGGATGGA | 0.996

Row | Sequence | switch fluorescence ratio
27 | GAGGGATTTA | 1.03
28 | GAGGGCAAAT | 1.04
29 | GAGGGGCATA | 0.992
30 | GAGGGGGT | 0.982
31 | GAGGGTA | 0.949
32 | GAGGGTGCCT | 1.03
33 | GAGGGTTTTC | 1.04
34 | GAGGTACGGA | 0.993
35 | GAGGTACGTT | 0.99
36 | GAGGTAGGTA | 1.01
37 | GAGGTCACAC | 1.02
38 | GAGGTCAGTT | 0.961
39 | GAGGTCCTGA | 1.01
40 | GAGGTGACGT | 0.985
41 | GAGGTGATGA | 1
42 | GAGGTGGAGA | 1.04
43 | GAGGTTCTGA | 0.971
44 | GAGTAAGTAC | 1.06
45 | GAGTAATGGA | 1.02
46 | GAGTAATTAT | 1.03
47 | GAGTAGTCGG | 1.03
48 | GAGTATACAG | 0.969
49 | GAGTATAGTC | 0.933
50 | GAGTATCGTG | 0.935
51 | GAGTATGCCA | 0.846
52 | GAGTATTCTT | 0.928

Row | Sequence | switch fluorescence ratio
53 | GAGTCAGATG | 0.965
54 | GAGTCAGGAC | 1.01
55 | GAGTCAGTCC | 0.978
56 | GAGTCCCATC | 1.03
57 | GAGTCCTGAG | 1.04
58 | GAGTCGAATC | 1.13
59 | GAGTCGCCGC | 0.976
60 | GAGTCTGTG | 0.981
61 | GAGTCTTTAG | 0.989
62 | GAGTGATAAT | 1.04
63 | GAGTGATCAA | 0.999
64 | GAGTGATTTT | 0.982
65 | GAGTGCACTT | 1.04
66 | GAGTGCCTAA | 0.993
67 | GAGTGCCTGC | 1.04
68 | GAGTGGAAAC | 1.03
69 | GAGTGTCGCT | 0.971
70 | GAGTGTGCT | 1.05
71 | GAGTGTTGAC | 0.986
72 | GAGTTAAGC | 1.02
73 | GAGTTAGAA | 0.989
74 | GAGTTATCAC | 1.07
75 | GAGTTATGCT | 0.96
76 | GAGTTCCGAG | 0.998
77 | GAGTTGCTCT | 1.01
78 | GAGTTTAAGC | 0.971

Row | Sequence | switch fluorescence ratio
79 | GAGTTTACTT | 1.05
80 | GAGTTTCAAT | 0.996
81 | GAGTTTCGT | 1.02
82 | GAGTTTGGGG | 0.982
83 | GAGTTTTAAC | 0.989
84 | GAGTTTTCAG | 0.976
85 | GATAAAACGT | 1.02
86 | GATAACGTCA | 1.03
87 | GATAAGACTA | 0.994
88 | GATAATCGCG | 0.948
89 | GATAATTAGA | 1.01
90 | GATACCGACA | 1.19
91 | GATACTAACA | 1.15
92 | GATACTCGGG | 0.953
93 | GATACTTCGT | 1.03
94 | GATAGATAG | 0.978
95 | GATAGTACAC | 1.07
96 | GATAGTGGGT | 0.967
97 | GATAGTGTGT | 0.981
98 | GATATAGTAC | 1.17
99 | GATATATTTG | 1.01
100 | GATATCAATC | 1.02
101 | GATATGCGA | 0.985
102 | GATATGCGGT | 0.995
103 | GATATGGCGC | 0.932
104 | GATATTAAAA | 1.04

Row | Sequence | switch fluorescence ratio
105 | GATCAACTGG | 1.05
106 | GATCAATAC | 3.51
107 | GATCAATACT | 1.53
108 | GATCACTACC | 1.17
109 | GATCAGTGTA | 1.01
110 | GATCATATCT | 1.04
111 | GATCCACCCA | 1.05
112 | GATCCACTGT | 1.09
113 | GATCCCGA | 0.964
114 | GATCCCTTT | 0.985
115 | GATCCGATA | 1.05
116 | GATCCTTAGT | 0.999
117 | GATCGAAAA | 1.07
118 | GATCGGAGGT | 1.01
119 | GATCGGTAGG | 0.979
120 | GATCGGTCAG | 1.01
121 | GATCGGTTTG | 0.982
122 | GATCGTGCGC | 0.991
123 | GATCGTGTGA | 0.964
124 | GATCTACT | 1.03
125 | GATCTAGTAC | 1.03
126 | GATCTATCGG | 0.974
127 | GATCTCGGCG | 0.954
128 | GATCTCTCGG | 1.04
129 | GATCTTTACT | 1.09
130 | GATCTTTTAT | 0.99

Row | Sequence | switch fluorescence ratio
131 | GATGAATG | 1.01
132 | GATGACCAAG | 0.96
133 | GATGAGAAAG | 1.02
134 | GATGAGAGTT | 1.01
135 | GATGATCGAA | 1.04
136 | GATGATTGGA | 0.941
137 | GATGCACAAC | 1.98
138 | GATGCATCAT | 1.03
139 | GATGCATGGA | 1.05
140 | GATGCCCGT | 1.01
141 | GATGCCTATC | 1.02
142 | GATGCGCGTC | 1.02
143 | GATGCTGTT | 1
144 | GATGGAAGCA | 1.01
145 | GATGGAATTT | 1.06
146 | GATGGATTGC | 1.04
147 | GATGGCAAGA | 1.14
148 | GATGGCAGTG | 1.02
149 | GATGGCGCGA | 0.945
150 | GATGGCTCGG | 1.01
151 | GATGGCTGT | 0.962
152 | GATGGGCTAC | 1.04
153 | GATGGGTAGT | 0.983
154 | GATGGTCAC | 1
155 | GATGGTGAAC | 0.974
156 | GATGTCGTAA | 1.01

Row | Sequence | switch fluorescence ratio
157 | GATGTGCGCT | 1.02
158 | GATGTGTCCC | 0.983
159 | GATGTTTCCT | 0.955
160 | GATTACCCGG | 1.03
161 | GATTACGGCA | 1.07
162 | GATTATCTTC | 1.01
163 | GATTATGTTT | 1.02
164 | GATTCAACCC | 1.03
165 | GATTCAGAC | 1.03
166 | GATTCCTA | 1.01
167 | GATTCTAAAA | 1.01
168 | GATTGCCTAC | 1.07
169 | GATTGGAAGG | 0.986
170 | GATTGGACGT | 1.02
171 | GATTGGACTT | 1.01
172 | GATTGGAGAA | 0.992
173 | GATTGTATGC | 0.979
174 | GATTGTCTCA | 1
175 | GATTGTGCTC | 1.01
176 | GATTTAACGT | 0.986
177 | GATTTATGCT | 1
178 | GATTTATTGT | 0.997
179 | GATTTCGAA | 1.05
180 | GATTTCTAAT | 0.994
181 | GATTTGACTT | 0.997
182 | GATTTGCGTT | 0.978

Row | Sequence | switch fluorescence ratio
183 | GATTTGTGGC | 1
184 | GATTTTGAAA | 0.987
185 | GATTTTGGGC | 0.993
186 | GATTTTTGAT | 0.987
187 | GCAAAAGGGT | 1.03
188 | GCAAACAGCC | 1.08
189 | GCAAACGTAA | 1.16
190 | GCAAACTGGG | 1.07
191 | GCAACATGGG | 1.03
192 | GCAACATTAA | 1.01
193 | GCAACATTGG | 0.985
194 | GCAACCCATG | 1.08
195 | GCAACCGCAG | 1.22
196 | GCAACCGTGC | 1.08
197 | GCAACGCTG | 0.985
198 | GCAACGGATC | 1
199 | GCAACGGGG | 0.981
200 | GCAACGGGGA | 0.981
201 | GCAACTAGGA | 1.08
